# Laboratory results published in the supplement of paper PMC10670038.
# Structures can show the parent of a compound that is named as a salt. ± gives the standard deviation of the averaged measurements. In all, about 2,000 compounds were measured (“relative cell viability vs DMSO, compound alone”: median about 1.1, lowest 2% from about 0.29 on). The list shows a part of the results.
# Tested on: TE10
# Test: relative cell viability vs DMSO, compound alone (fraction); TE10 is an esophageal squamous carcinoma line; higher = less cytotoxic
# Settings: 2 µM; 48 h
# Experimental: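 TE10 ESCC cells (1,000/well, 384-well plates) were treated with Selleck bioactive library compounds at 2 uM alone for 48 h. Viability was read by CellTiter-Glo and expressed relative to DMSO wells. Two technical replicates (A, B).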
row,SMILES,relative cell viability
1,CNc1nc(-c2ccc3c(N)n[nH]c3c2)cc(N2C[C@@H](C(=O)NC3CCCCC3)CC[C@H]2C)n1,1.05 ± 0.037
2,O=C1C(c2c(O)[nH]c3ccccc23)=Nc2ccccc21 [Indirubin],0.947 ± 0.059
3,CS(=O)(=O)c1ccc(C(=O)Nc2ccc(Cl)c(-c3ccccn3)c2)c(Cl)c1 [Vismodegib (GDC-0449)],1.24 ± 0.066
4,"Cc1ccc2c(c1)C(=O)C1(O)CCN(c3ccccc3)C1=N2 (single isomer, unassigned; (-)) [(-)-Blebbistatin]",1.11 ± 0.029
5,CC(C)C[C@H](NC(=O)[C@H](Cc1ccccc1)NC(=O)c1cnccn1)B(O)O [Bortezomib (PS-341)],0.09 ± 0.011
6,COc1ccc(CC(C)NCC(O)c2ccc(O)c(NC=O)c2)cc1 (stereo not given) [Formoterol Hemifumarate],1.11 ± 0.1
7,c1ccc(CC2=NCCN2)cc1 [Tolazoline HCl],1.16 ± 0.0092
8,CC(C)(Oc1ccc(CCNC(=O)c2ccc(Cl)cc2)cc1)C(=O)O [Bezafibrate],1.19 ± 0.027
9,O=C(O)CCc1nc(-c2ccccc2)c(-c2ccccc2)o1 [Oxaprozin],1.087 ± 0.0057
10,O=C(c1cc(Cc2n[nH]c(=O)c3ccccc23)ccc1F)N1CCN(C(=O)C2CC2)CC1,1.19 ± 0.053
11,O=C(O)CCCc1c[nH]c2ccccc12 [3-Indolebutyric acid (IBA)],1.1 ± 0.024
12,O=C1c2ccccc2C(=O)C1c1ccccc1 [Phenindione],0.978 ± 0.056
13,CC[C@H]1OC(=O)[C@H](C)[C@@H](O[C@H]2C[C@@](C)(OC)[C@@H](O)[C@H](C)O2)[C@H](C)[C@@H](O[C@@H]2O[C@H](C)C[C@H](N(C)C)[C@H]2O)[C@](C)(O)C[C@@H](C)C(=O)[C@H](C)[C@@H](O)[C@]1(C)O [Erythromycin],1.08 ± 0.053
14,COc1cc(F)c(C(C)C)cc1-c1ccc(C(F)(F)F)cc1CN1C(=O)O[C@H](c2cc(C(F)(F)F)cc(C(F)(F)F)c2)[C@@H]1C [Anacetrapib (MK-0859)],1.04 ± 0.095
15,CO[C@H]1/C=C/O[C@@]2(C)Oc3c(C)c(O)c4c(O)c(c(/C=N/N5CCN(C)CC5)c(O)c4c3C2=O)NC(=O)/C(C)=C\C=C\[C@H](C)[C@H](O)[C@@H](C)[C@@H](O)[C@@H](C)[C@H](OC(C)=O)[C@@H]1C [Rifampin],1.049 ± 0.003
16,Cc1c(Cl)cccc1Nc1ccccc1C(=O)O [Tolfenamic Acid],1.08 ± 0.018
17,CCCSc1ccc2[nH]c(NC(=O)OC)nc2c1 [Albendazole],0.769 ± 0.027
18,CC(C)Nc1cc(-c2c[nH]c(C(=O)N[C@H](CO)c3cccc(Cl)c3)c2)c(Cl)cn1,0.84 ± 0.00098
19,Cc1ccc(N(CC2=NCCN2)c2cccc(O)c2)cc1 [Phentolamine Mesylate],0.894 ± 0.012
20,Cc1ccc(S(=O)(=O)C=CC#N)cc1,0.063 ± 0.0047
21,CNC[C@@H](O)c1ccc(O)c(O)c1 [L-Adrenaline],1.06 ± 0.028
22,CCc1ccc(CCOc2ccc(CC3SC(=O)NC3=O)cc2)nc1 (stereo not given) [Pioglitazone],1.15 ± 0.092
23,CCc1ccc(CCOc2ccc(CC3SC(=O)NC3=O)cc2)nc1 (stereo not given) [Pioglitazone HCl],1.01 ± 0.062
24,O=C(O)/C=C/c1ccc(Cn2ccnc2)cc1 [Ozagrel HCl],0.982 ± 0.026
25,O=C(O)/C=C/c1ccc(Cn2ccnc2)cc1 [Ozagrel],1.14 ± 0.04

row,SMILES,relative cell viability
1,COc1cc2nccc(Oc3ccc(NC(=O)C4(C(=O)Nc5ccc(F)cc5)CC4)cc3)c2cc1OC,0.829 ± 0.17
2,COc1cc2nccc(Oc3ccc(NC(=O)C4(C(=O)Nc5ccc(F)cc5)CC4)cc3)c2cc1OC [Cabozantinib malate (XL184)],0.903 ± 0.039
3,CNC(=O)c1cc(COc2nnc(Nc3ccc(Cl)cc3)c3ccoc23)ccn1 [Telatinib],0.953 ± 0.0032
4,CCCc1nc(C)c2c(=O)nc(-c3cc(S(=O)(=O)N4CCN(CC)CC4)ccc3OCC)[nH]n12 [Vardenafil HCl Trihydrate],1.11 ± 0.025
5,O=c1c(-c2ccc(O)cc2)coc2c([C@@H]3O[C@H](CO)[C@@H](O)[C@H](O)[C@H]3O)c(O)ccc12 [Puerarin],1.12 ± 0.046
6,Cc1cc(C)cc(C(=O)NOCCCCCC(=O)NO)c1,0.5308 ± 0.00056
7,Cc1cc([C@@H](C)Nc2ccccc2C(=O)O)c2nc(N3CCOCC3)cc(=O)n2c1,0.854 ± 0.072
8,CCOc1nc2cccc(C(=O)O)c2n1Cc1ccc(-c2ccccc2-c2noc(=O)[nH]2)cc1 [Azilsartan],0.961 ± 0.29
9,COCCOC(=O)C1=C(C)NC(C)=C(C(=O)OC/C=C/c2ccccc2)C1c1cccc([N+](=O)[O-])c1 (stereo not given) [Cilnidipine],1.15 ± 0.055
10,CN(C)CCOc1ccc(/C(=C(/CCCl)c2ccccc2)c2ccccc2)cc1 [Toremifene Citrate],1.108 ± 0.0042
11,CC(C)(Cc1ccc2ccccc2c1)NC[C@@H](O)COc1cccc(Cl)c1C#N,0.908 ± 0.048
12,O=C1Nc2ccc(I)cc2C1=Cc1cc(Br)c(O)c(Br)c1,1.07 ± 0.058
13,CCN1CCN(C(=O)N[C@@H](C(=O)N[C@@H]2C(=O)N3C(C(=O)O)=C(CSc4nnnn4C)CS[C@H]23)c2ccc(O)cc2)C(=O)C1=O [Cefoperazone],1.01 ± 0.044
14,O=C(c1cn(Cc2cncn2Cc2ccc(Br)cc2)cc1-c1cccc2ccccc12)N1CCOCC1,0.958 ± 0.015
15,Cc1ccc(Cl)c(Nc2ccccc2C(=O)O)c1Cl [Meclofenamate Sodium],0.984 ± 0.078
16,O=C(NCCO[N+](=O)[O-])c1cccnc1 [Nicorandil],1.1 ± 0.026
17,COc1cc(O)c(CC=C(C)C)c(O)c1C(=O)/C=C/c1ccc(O)cc1 [Xanthohumol],0.875 ± 0.18
18,Cc1cc(/N=N/c2ccc(S(=O)(=O)Nc3ccccn3)cc2)c(N)cc1O,1.07 ± 0.063
19,Oc1ccc(OCc2ccccc2)cc1 [Monobenzone],1.02 ± 0.0068
20,"CNC(=O)[C@H](Cc1c[nH]c2ccccc12)NC(=O)[C@@H](CC(=O)NO)CC(C)C [Ilomastat (GM6001, Galardin)]",1.09 ± 0.033
21,C[C@H]1C[C@H]2[C@@H]3CCC4=CC(=O)C=C[C@]4(C)[C@@]3(F)[C@@H](O)C[C@]2(C)[C@@]1(O)C(=O)CO [Betamethasone],1.08 ± 0.26
22,Cc1nnc(NS(=O)(=O)c2ccc(N)cc2)s1 [Sulfamethizole],1.07 ± 0.033
23,FC(F)c1nc2ccccc2n1-c1nc(N2CCOCC2)nc(N2CCOCC2)n1,0.545 ± 0.018
24,COc1ccccc1S(=O)(=O)Nc1ccc2c(c1)CN(C)C(=O)N2,0.914 ± 0.017
25,O=C(O)CCCc1ccccc1 [Sodium Phenylbutyrate],1.19 ± 0.039

row,SMILES,relative cell viability
1,Cc1cnc(NC(=O)C2=C(O)c3ccccc3S(=O)(=O)N2C)s1 [Meloxicam],1.11 ± 0.045
2,CC1(C)O[C@@H]2C[C@H]3[C@@H]4CCC5=CC(=O)C=C[C@]5(C)[C@@]4(F)[C@@H](O)C[C@]3(C)[C@]2(C(=O)CO)O1 [Triamcinolone Acetonide],0.947 ± 0.058
3,OC1(c2ccc(Cl)c(C(F)(F)F)c2)CCN(CCCC(c2ccc(F)cc2)c2ccc(F)cc2)CC1 [Penfluridol],0.884 ± 0.056
4,C[C@@H]1C[C@H]2[C@@H]3CCC4=CC(=O)C=C[C@]4(C)[C@@]3(F)[C@@H](O)C[C@]2(C)[C@@]1(O)C(=O)CO [Dexamethasone (DHAP)],1.189 ± 0.0092
5,CC(C)Oc1ccc(C(=O)N[C@H](CNC(=O)CN(C)C)Cc2ccc(-c3cn4cccc([C@H](C)O)c4n3)cc2)cc1Cl,0.949 ± 0.027
6,CCCCCCCCCCCCCCCC(=O)O[C@@H]1[C@@H](O)[C@@H](O)[C@@H]([C@H](NC(=O)[C@@H]2C[C@@H](CCC)CN2C)[C@H](C)Cl)O[C@@H]1SC [Clindamycin palmitate HCl],1.13 ± 0.025
7,CNc1cccc(CCOc2ccc3c(c2)CN(CC(F)(F)F)C(=O)[C@H](CC(=O)O)C3)n1,1.18 ± 0.089
8,CC(=O)Nc1ncc([N+](=O)[O-])s1 [Nithiamide],1.29 ± 0.044
9,CCN=C1N[C@@H]2[C@@H](O)[C@H](O)[C@@H](CO)O[C@@H]2S1 [Thiamet G],1.04 ± 0.037
10,C=CC(=O)Nc1ccc2ncnc(Nc3cccc(Br)c3)c2c1,1.04 ± 0.074
11,CCC(=O)c1c(O)cc(O)cc1O [Flopropione],1.16 ± 0.03
12,O=C(/C=C\n1cnc(-c2cc(C(F)(F)F)cc(C(F)(F)F)c2)n1)NNc1ccccn1 [Verdinexor (KPT-335)],0.3315 ± 0.0025
13,CC1Cc2ccccc2N1NC(=O)c1ccc(Cl)c(S(N)(=O)=O)c1 (stereo not given) [Indapamide],1.09 ± 0.018
14,CCOCC(O)COc1ccc(NC(=O)CC[S+](C)C)cc1 (stereo not given) [Suplatast Tosylate],0.962 ± 0.027
15,CN1CCN(CCOc2cc(OC3CCOCC3)c3c(Nc4c(Cl)ccc5c4OCO5)ncnc3c2)CC1 [Saracatinib (AZD0530)],0.884 ± 0.14
16,O=C(/C=C/c1ccc(CN(CCO)CCc2c[nH]c3ccccc23)cc1)NO [LAQ824 (Dacinostat)],0.0682 ± 0.006
17,Cc1nc(-c2cn3c(n2)-c2ccc(-c4cnn(C(C)(C)C(N)=O)c4)cc2OCC3)n(C(C)C)n1,0.53 ± 0.025
18,CC(C)(C)c1ccc(-c2nc3ccccc3[nH]2)cc1,0.3629 ± 0.0021
19,Cc1cccc(C#Cc2ccccc2)n1,0.754 ± 0.064
20,O=c1cc[nH]c(=S)[nH]1 [2-Thiouracil],1.14 ± 0.12
21,CC(C)c1cc(-c2ccc(F)c3ccccc23)nc(N)n1,1.13 ± 0.03
22,O=C(NOC[C@H](O)CO)c1ccc(F)c(F)c1Nc1ccc(I)cc1F,0.92 ± 0.064
23,Cc1cc(C)c(/C=C2\C(=O)Nc3ccccc32)[nH]1 [Semaxanib (SU5416)],1.11 ± 0.016
24,CC[C@H]1OC(=O)[C@H](C)[C@@H](O[C@H]2C[C@@](C)(OC)[C@@H](O)[C@H](C)O2)[C@H](C)[C@@H](O[C@@H]2O[C@H](C)C[C@H](N(C)C)[C@H]2O)[C@](C)(O)C[C@@H](C)[C@@H]2N[C@@H](COCCOC)O[C@H]([C@H]2C)[C@]1(C)O [Dirithromycin],0.852 ± 0.15
25,O=C1CC2(CCCC2)CC(=O)N1CCCCN1CCN(c2ncccn2)CC1 [Buspirone HCl],0.992 ± 0.012
